“And” between values parts separate entries of the source, which are not always exact repeats. Equal entries are not always repeated. Among all 420,000 compounds or so, about 64,000 (15%) were called active. The inconclusive results got no clear call from the source; some entries with a clear call stand among them for comparison. The call rests on the fitted dose curve; in most records, active means well fitted inhibition curve with a large enough effect; inconclusive means small, poorly fitted or top-dose-only effect; inactive means flat fitted curve, though single readings scatter. Potencies of inconclusive entries are left out as doubtful fits.
test: qHTS for Inhibitors of human tyrosyl-DNA phosphodiesterase 1 (TDP1): qHTS in cells in absence of CPT; settings: DT40 Tdp1-/- hTDP1 cells, no CPT, ATP luminescence, 48 h; activity change, negative = growth inhibition: at 46.2 µM (top of the series) unless noted; further: nearly all actives have a fitted effect of over 55% in size
Method in brief: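 DT40 Tdp1-/-;hTDP1 cells, no CPT (DMSO vehicle only), 400 cells/well; compounds pin-transferred; ≥48 hr, 37 °C; CellTiter-Glo 30 min RT dark, luminescence read.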
On the % scale 0 is the no-effect control and ±100 the full control effect; potency means the concentration at half of the fitted maximal effect; tags describe the fitted curve by direction and shape.

Compound | Potency | activity change, negative = growth inhibition
COc1ccc(C(c2nnnn2Cc2ccccc2)N2CCN(c3ccccc3)CC2)cc1 (centres undefined) | inactive | –
COc1cc(S(=O)(=O)NC2CCCCC2C)ccc1-n1cnnn1 (centres undefined) | inconclusive [inhibitor, partial curve, poor fit] | –
CC(=O)Nc1cccc(-c2csc(Nc3ccccn3)n2)c1 | inconclusive [inhibitor, partial curve] | –
Oc1ccc(C2=NN(c3ccccc3)C(c3ccc(F)cc3)C2)cc1 (centres undefined) | inconclusive [inhibitor, single point] | –
O=C(NCc1ccccc1)c1cc(C2COCCN2S(=O)(=O)c2ccccc2)on1 (centres undefined) | inactive | –
COc1cc(C(C)=O)ccc1COc1ccc(C(=O)OCC(=O)NC(C)(C)C)cc1OC | inconclusive [inhibitor, single point] | –
CC(C)[C@H](NC(=O)c1cc2cc(Cl)ccc2n1C)C(=O)N1CCC(C(=O)O)CC1 | inconclusive [inhibitor, full curve] | –
CCCC(O)(c1ccc(OC)cc1)C(CN1CCOCC1)c1ccccc1 (centres undefined) | inconclusive [inhibitor, single point] | –
Cc1ccc(CSc2nnc(SCC(=O)N/N=C/c3c[nH]c4ccccc34)s2)cc1 | inconclusive [inhibitor, partial curve] | –
CCOC(=O)c1ccc(NC(=O)Nc2cc(C)on2)cc1 | inactive | –
Clc1ccc(C2=NNC(=NCc3ccccc3)SC2)cc1 | inconclusive [inhibitor, single point] | –
CC(C)OCCCNC(=O)CN1C(=O)/C(=C/c2ccccc2)Sc2ccccc21 | inconclusive [inhibitor, partial curve] | –
O=C(Nc1cccc(F)c1)C1CCN(S(=O)(=O)c2cccc3nonc23)CC1 | inconclusive [inhibitor, partial curve, poor fit] | –
CCOC(=O)NC(=O)c1cn(CCN(C)C)c(=O)[nH]c1=O | inactive | –
O=c1ccc(=O)n(-c2ccccc2)[nH]1 | inconclusive [inhibitor, single point] | –
Cc1cccc(NC(=O)C2CCN(C(=O)c3ccc(Cl)cc3)CC2)n1 | inconclusive [inhibitor, single point] | –
COC(=O)C1(CCSC)NC(c2ccc(O)cc2)C2C(=O)N(c3ccc(F)cc3)C(=O)C21 (centres undefined) | – | inconclusive: -36.1% [inhibitor]
[O-][N+](=Cc1ccccc1)CC1(O)CCCCC1 | inactive | –
CCCOc1ccc(C(=O)N(Cc2ccc(Cl)cc2)Cc2ccco2)cc1 | inconclusive [inhibitor, partial curve] | –
CCOC(=O)c1cccc(-n2c(C)cc(C=O)c2C)c1 | inactive | –
CCCCN(C)C(=O)CN1C(=O)c2cccnc2Oc2ccc(Cl)cc21 | inconclusive [inhibitor, single point] | –
CCCCNC(=O)c1onc(CSc2cc(C)ccc2C)c1C(=O)O | inactive | –
Cc1ccc(-c2c(C(=O)NC(C)C)oc(=O)c3ccccc23)cc1 | inconclusive [inhibitor, partial curve] | –

Compound | Potency | activity change, negative = growth inhibition
CC(C)(C)c1ccc(OCCC(=O)Nc2cccc(S(=O)(=O)N3CCOCC3)c2)cc1 | inconclusive [inhibitor, single point] | –
Cn1c(=O)[nH]c(=O)c2c1nc1n2CCS1 | inconclusive [inhibitor, single point] | –
CCOc1cccc(-c2nn3c(-c4ccco4)nnc3s2)c1 | inconclusive [inhibitor, single point] | –
COc1cc(NC(=O)CCS(=O)(=O)c2ccc(Br)cc2)cc(OC)c1 | inconclusive [inhibitor, single point] | –
Cc1ccc(CNC(=O)c2ccc3c(c2)NC(=O)C(CS(=O)(=O)Cc2cccc(C)c2)N3)cc1 (centres undefined) | inconclusive [inhibitor, single point] | –
COc1ccccc1NC(=O)c1cc(C)nc2ccccc12 | inconclusive [inhibitor, single point] | –
CO/N=C1\CCCc2c(C(=O)NN)sc(SC)c21 | inconclusive [inhibitor, single point] | –
O=C(COC(=O)c1cnccn1)Nc1ccc(Cl)cc1C(F)(F)F | inconclusive [inhibitor, full curve, poor fit] | –
O=C(CN(c1ccc2c(c1)OCCO2)S(=O)(=O)c1ccccc1)NCc1ccc(Cl)cc1 | inconclusive [inhibitor, single point] | –
O=C(CSCc1ccccc1)N1CCN(S(=O)(=O)c2cccc(F)c2)CC1 | inactive | –
C=CCn1c(N)c(C(=O)NCC2CCCO2)c2nc3ccccc3nc21 (centres undefined) | inconclusive [inhibitor, partial curve] | –
CC1CCN(c2c(NCC3CCC(C(=O)NCCC4=CCCCC4)CC3)c(=O)c2=O)CC1 (centres undefined) | inconclusive [inhibitor, single point] | –
Cn1c(CNC(=O)CSc2nc(-c3ccccc3F)nc3cc(=O)[nH]n23)nc2ccccc21 | inactive | –
CC(C)c1ccc(-c2noc(SCC(=O)N3CCN(c4ccccc4F)CC3)n2)cc1 | active: 20.6 µM | –
CCc1cccc(OCCCCNCCCOC)c1 | inactive | –
CSc1ccccc1NC(=O)c1ccccc1 | inactive | –
Cn1cc(NC(=O)OCc2ccc(Cl)cc2)c(C(F)(F)F)n1 | inconclusive [inhibitor, single point] | –
CC(C(=O)Nc1cccnc1)N1C(=O)c2ccccc2C1=O (centres undefined) | inactive | –
O=C(c1ccc(-c2nnc(Nc3ccccc3)c3ccccc23)cc1)N1C[C@H]2C[C@H](C1)c1cccc(=O)n1C2 | inconclusive [inhibitor, single point] | –
CN1CCN(S(=O)(=O)c2ccc(NC(=S)NC(=O)c3ccc(Cl)cc3)cc2)CC1 | inconclusive [inhibitor, single point] | –
Cc1ccc(C(=O)N2CC(C)OC(C)C2)cc1S(=O)(=O)N1CCCCC1 (centres undefined) | inconclusive [inhibitor, partial curve] | –
COc1cc(-c2noc(C)c2/C=C/c2ccc(OC(C)=O)cc2)cc(OC)c1OC | active: 56.2 nM and active: 820 nM | –
CCOC(=O)c1cnc2ccc(OC)cc2c1NCCN1CCOCC1 | – | inconclusive: -32.2% [inhibitor]

Compound | Potency | activity change, negative = growth inhibition
Cc1cccc(C(=O)NC(=S)NNC(=O)c2cccs2)c1 | inconclusive [inhibitor, single point] | –
Cc1c(C(=O)N2CCC(C(=O)Nc3ccc(F)c(Cl)c3)CC2)sc2nc[nH]c(=O)c12 | inactive | –
CCc1nccn1C(=O)c1cnn2c(C(F)F)cc(-c3ccc(C)cc3)nc12 | active: 14.6 µM | –
CC(C)(C)c1ccc(Cn2ccc(-c3ccc4c(c3)OCO4)n2)cc1 | inconclusive [inhibitor, single point] | –
CCN(CC)S(=O)(=O)c1ccc(C(=O)NC(=S)N(CCC#N)Cc2cccnc2)cc1 | inactive | –
COc1ccc(N(C(=O)CSCC(=O)Nc2cc(C)on2)C(C(=O)NC2CCCCC2)c2ccc(O)c(O)c2)cc1 (centres undefined) | inconclusive [inhibitor, single point] | –
C=CCn1c(SCC(=O)NCC2CCCO2)nc2c([nH]c3ccccc32)c1=O (centres undefined) | inactive | –
O=C(NCC[C@@H]1C[C@@H]2C=C[C@H]1C2)c1cc(COc2ccc(F)cc2F)on1 | inconclusive [inhibitor, single point] | –
O=C(Nc1ccc2ccccc2n1)c1ccccc1Cl | inconclusive [inhibitor, single point] | –
CC(=O)N(Cc1ccc(F)cc1)Cc1nc2ccccc2c(=O)[nH]1 | inconclusive [inhibitor, single point] | –
O=[N+]([O-])c1ccccc1-c1nc(-c2ccc(Br)o2)no1 | inconclusive [inhibitor, single point] | –
COc1cc(CN(C(=O)c2ccccc2)c2ccccn2)cc(OC)c1OC | inconclusive [inhibitor, single point] | –
Cc1ccc(S(=O)(=O)N2CCC(C(=O)N3CCc4ccccc43)CC2)cc1C | active: 18.4 µM | –
CCn1c2ccccc2c2cc(NC(=O)COC(=O)c3cc(S(N)(=O)=O)c(Cl)cc3Cl)ccc21 | inconclusive [inhibitor, single point] | –
O=C(c1cccc(C(=O)N2CCC(O)(c3ccccc3)CC2)c1)N1CCC(O)(c2ccccc2)CC1 | inactive | –
CCCCNC(=S)Nc1ccc([N+](=O)[O-])cc1 | active: 23.1 µM | –
CCOC(=O)/C(C#N)=C\C1=C(N2CCOCC2)CC(C)(C)OC1 | inactive | –
CCCOc1ccc(C2C(=O)N(C3CCCCCC3)CC(=O)N2C(C)C)cc1OC (centres undefined) | inconclusive [inhibitor, single point] | –
CC1(c2nnc(Cc3ccccc3)o2)CC(c2ccc([N+](=O)[O-])cc2)=NO1 (centres undefined) | inconclusive [inhibitor, single point] | –
NC(=O)COn1c(SCC(N)=O)nc2ccccc2c1=O | inactive | –
NC(=O)CSC1=Nc2ccccc2C2=NC(CCC(=O)NCc3ccc(F)cc3)C(=O)N12 (centres undefined) | inactive | –
CN(C)c1ccc(/C=C2\CCCc3c2nc2ccccc2c3C(=O)O)cc1 | inactive | –
COc1ccc2c(c1)c(=O)c(C(=O)c1ccc(F)cc1)cn2CC(=O)Nc1ccc2c(c1)OCCO2 | inconclusive [inhibitor, single point] | –
